Some of the results follow. Single values of this set are uncertain. Values with irradiation are relative to irradiated vehicle.
Assays:
A549-Dual [1] = assay: NF-kB reporter (SEAP) activity, viability-corrected, relative to vehicle (fold change vs vehicle); higher = more activation of STING-IRF / NF-kB immune response reporter; settings: 10 µM
A549-Dual [2] = assay: ISRE reporter (Lucia luciferase) activity, viability-corrected, relative to vehicle (fold change vs vehicle); higher = more activation of STING-IRF / NF-kB immune response reporter; settings: 10 µM
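For NF-kB reporter (SEAP) activity, viability-corrected, relative to vehicle in this document: viability correction based on the alamar blue assay, with concentrations leaving 10% survival or less dropped.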

Compound | NF-kB reporter (A549-Dual [1]; irradiation: 8 Gy/4 fr) | NF-kB reporter (A549-Dual [1]; irradiation: none) | ISRE reporter (A549-Dual [2]; irradiation: 8 Gy/4 fr) | ISRE reporter (A549-Dual [2]; irradiation: none)
Cc1ccsc1C(=CCCN1CCCC(C(=O)O)C1)c1sccc1C.Cl (stereo unspecified) [Tiagabine hydrochloride] | 0.729 | 1.19 | 0.851 | 0.955
COc1cc(-c2oc3cc(O)cc(O)c3c(=O)c2O)ccc1O [Isorhamnetin] | 0.401 | 0.526 | 0.209 | 0.203
Nc1nc(O)c2c(n1)NCC(CNc1ccc(C(=O)NC(CCC(=O)[O-])C(=O)[O-])cc1)N2C=O.[Ca+2] (stereo unspecified) [Calcium folinate] | 0.941 | 0.658 | 0.971 | 0.802
Cc1nnc(NS(=O)(=O)c2ccc(N)cc2)s1 [Sulfamethizole] | 0.698 | 0.914 | 0.684 | 0.679
COC(=O)CCc1ccc(OCC(O)CNC(C)C)cc1 (stereo unspecified) [Esmolol] | 0.883 | 1.03 | 0.736 | 0.669
CN1CCC(=C2c3ccccc3C=Cc3ccccc32)CC1.Cl [Cyproheptadine HCl] | 0.752 | 0.947 | 0.776 | 0.91
OCC(CO)NC1CC(O)(CO)C(O)C(O)C1O (stereo unspecified) [Voglibose] | 1 | 0.746 | 0.788 | 0.749
O=C(O)C(O)C(O)C(=O)O.c1cnc2cc3c(cc2n1)C1CNCC3C1 [Varenicline Tartrate] | 0.521 | 0.72 | 0.619 | 0.765
O=C(O)c1ccc(-n2nc(-c3ccccc3O)nc2-c2ccccc2O)cc1 [Deferasirox] | 0.407 | 1 | 0.166 | 1.07
C[N+]1(C)C2CCC1CC(OC(=O)C(O)c1ccccc1)C2.[Br-] (stereo unspecified) [Homatropine Methylbromide] | 0.74 | 1.67 | 0.671 | 1.07
Cc1nnc(SCC2=C(C(=O)O)N3C(=O)C(NC(=O)Cn4cc(Cl)c(=O)c(Cl)c4)C3SC2)s1 (stereo unspecified) [Cefazedone] | 0.795 | 0.904 | 0.862 | 0.679
C=CCN1CCCC1CNC(=O)c1cc2nn[nH]c2cc1OC.Cl (stereo unspecified) [Alizapride HCl] | 0.798 | 0.975 | 0.702 | 0.504
COc1ccc2cc3[n+](cc2c1OC)CCc1cc2c(cc1-3)OCO2.[Cl-] [Berberine chloride] | 0.69 | 1.35 | 0.25 | 0.898
CC(=O)[O][K] [Potassium acetate] | 0.862 | 1 | 0.927 | 0.958
CC1CNc2c(cccc2S(=O)(=O)NC(CCCNC(=N)N)C(=O)N2CCC(C)CC2C(=O)O)C1 (stereo unspecified) [Argatroban] | 0.631 | 0.953 | 0.639 | 0.752
Oc1c(Cl)cc(Cl)c(Cl)c1Cc1c(O)c(Cl)cc(Cl)c1Cl [Hexachlorophene] | 0.508 | 1.62 | 0.0713 | 0.444
CCCCCC(O)/C=C/C1C(O)CC(=O)C1CCCCCCC(=O)O (stereo unspecified) [Alprostadil] | 0.708 | 1.2 | 0.593 | 0.829
Cc1cn(C2CC(O)C(CO)O2)c(=O)[nH]c1=O (stereo unspecified) [Telbivudine] | 0.764 | 0.894 | 0.722 | 0.712
CNCCCC12CCC(c3ccccc31)c1ccccc12.Cl [Maprotiline HCl] | 1.15 | 1.04 | 1.25 | 1.96
CC1(C)SC2C(NC(=O)C(N)c3ccc(O)cc3)C(=O)N2C1C(=O)[O-].[Na+] (stereo unspecified) [Amoxicillin Sodium] | 0.909 | 0.93 | 0.953 | 0.801
CCc1oc2ccccc2c1C(=O)c1cc(Br)c(O)c(Br)c1 [Benzbromarone] | 0.571 | 0.847 | 0.525 | 0.677
CC(C)[N+]1(C)C2CCC1CC(OC(=O)C(CO)c1ccccc1)C2.[Br-] (stereo unspecified) [Ipratropium Bromide] | 0.842 | 0.919 | 0.981 | 0.762
CC12CCC3c4ccc(O)cc4CCC3C1CC(O)C2O (stereo unspecified) [Estriol] | 1 | 1.02 | 0.781 | 0.807
Nc1nc2c(ncn2C2CC(O)C(CO)O2)c(=O)[nH]1 (stereo unspecified) [2'-Deoxyguanosine monohydrate] | 0.903 | 0.642 | 0.948 | 0.574
O=c1[nH]cnc2nc[nH]c12 [Hypoxanthine] | 1.17 | 0.612 | 1.13 | 0.58
COc1c(N2CC3CCCNC3C2)c(F)cc2c(=O)c(C(=O)O)cn(C3CC3)c12 (stereo unspecified) [Moxifloxacin] | 0.79 | 0.926 | 0.694 | 0.688
Cc1cccc(C#Cc2ccccc2)n1 | 0.764 | 1.14 | 0.426 | 0.71

Compound | NF-kB reporter (A549-Dual [1]; irradiation: 8 Gy/4 fr) | NF-kB reporter (A549-Dual [1]; irradiation: none) | ISRE reporter (A549-Dual [2]; irradiation: 8 Gy/4 fr) | ISRE reporter (A549-Dual [2]; irradiation: none)
C[N+](C)(C)CC(=O)[O-] [Betaine] | 0.821 | 0.776 | 0.655 | 0.625
CNCCC=C1c2ccccc2CCc2ccccc21.Cl [Nortriptyline hydrochloride] | 0.498 | 0.665 | 0.442 | 0.71
Cc1ccc(C(=O)C(C)CN2CCCCC2)cc1.Cl (stereo unspecified) [Tolperisone HCl] | 1.04 | 1.38 | 1.03 | 1.09
CC(COc1ccccc1)N(CCCl)Cc1ccccc1.Cl (stereo unspecified) [Phenoxybenzamine HCl] | 0.729 | 0.959 | 0.652 | 0.82
Nc1nc(=O)c2nc(CNc3ccc(C(=O)NC(CCC(=O)O)C(=O)O)cc3)cnc2[nH]1 (stereo unspecified) [Folic acid] | 0.969 | 0.66 | 0.927 | 0.637
COc1cc2c(cc1OC)C(=O)C(CC1CCN(Cc3ccccc3)CC1)C2 (stereo unspecified) [Donepezil] | 0.813 | 0.698 | 1.36 | 0.91
CC(=O)OC/C=C(C)/C=C/C=C(C)/C=C/C1=C(C)CCCC1(C)C [Vitamin A Acetate] | 0.84 | 0.809 | 0.747 | 0.62
CC(=O)OC1CC2CCC3C(CCC4(C)C3CC([N+]3(C)CCCCC3)C4OC(C)=O)C2(C)CC1N1CCCCC1.[Br-] (stereo unspecified) [Vecuronium Bromide] | 0.702 | 0.836 | 0.759 | 0.899
CC1(C)SC2C(NC(=O)Cc3ccccc3)C(=O)N2C1C(=O)[O-].[Na+] (stereo unspecified) [Penicillin G Sodium] | 0.876 | 0.939 | 1.05 | 0.827
CCCCOC(=O)c1ccc(N)cc1 [Butamben] | 0.607 | 0.884 | 0.553 | 0.927
NCCC(=O)O [β-Alanine] | 0.535 | 0.689 | 0.274 | 0.454
Cl.O=C(c1ccc(OCCN2CCCCC2)cc1)c1c(-c2ccc(O)cc2)sc2cc(O)ccc12 [Raloxifene HCl] | 0.821 | 0.801 | 0.862 | 0.885
O=C1CCc2ccccc21 [1-Indanone] | 0.733 | 0.839 | 0.717 | 0.704
COc1cc2c(cc1OC)-c1cc3ccc(OC)c(OC)c3c[n+]1CC2 [Palmatine] | 0.637 | 0.92 | 0.732 | 1.62
OCC1OC(OC2(CCl)OC(CCl)C(O)C2O)C(O)C(O)C1Cl (stereo unspecified) [Sucralose] | 0.502 | 0.491 | 0.542 | 0.591
O=CC(O)C(O)C(O)CO (stereo unspecified) [Xylose] | 0.791 | 0.837 | 0.846 | 0.777
Cc1cccc(C)c1NC(=O)C1CCCCN1C.Cl (stereo unspecified) [Mepivacaine HCl] | 0.784 | 1.04 | 0.939 | 0.989
COC(=O)NC(C(=O)N1C2CCC(C2)C1c1nc2ccc(-c3ccc4c(c3)C(F)(F)c3cc(-c5cnc(C6CCC7(CC7)N6C(=O)C(NC(=O)OC)C(C)C)[nH]5)ccc3-4)cc2[nH]1)C(C)C (stereo unspecified) [Ledipasvir (GS5885)] | 0.662 | 0.9 | 0.576 | 1.24
COc1cccc(N2CCN(C3=Nc4c(F)cccc4C(CC(=O)O)N3c3cc(C(F)(F)F)ccc3OC)CC2)c1 (stereo unspecified) [Letermovir(AIC246)] | 0.667 | 1 | 0.721 | 1.09
Cc1ccc(/C=C2\C(=O)C3(C)CCC2C3(C)C)cc1 (stereo unspecified) [4-Methylbenzylidene camphor] | 0.811 | 0.869 | 0.73 | 0.855
CC(C)c1nc(CN(C)C(=O)NC(C(=O)NC(Cc2ccccc2)CC(O)C(Cc2ccccc2)NC(=O)OCc2cncs2)C(C)C)cs1 (stereo unspecified) [Ritonavir] | 0.606 | 0.671 | 0.655 | 0.812
O=C(O)CCC(=O)O.O=C(OC1CN2CCC1CC2)N1CCc2ccccc2C1c1ccccc1 (stereo unspecified) [Solifenacin succinate] | 0.799 | 1.05 | 1.02 | 1.5
CCN(CC)CCOc1ccc2c(c1)C(=O)c1cc(OCCN(CC)CC)ccc1-2.Cl.Cl [Tilorone dihydrochloride] | 1.35 | 3.39 | 1.29 | 6.15
CC(C)(C)C(=O)OCOP(=O)(COCCn1cnc2c(N)ncnc21)OCOC(=O)C(C)(C)C [Adefovir Dipivoxil] | 1.21 | 1.35 | 1.35 | 2.96
CC(NC(CCc1ccccc1)C(=O)O)C(=O)N1CCCC1C(=O)O.O.O (stereo unspecified) [Enalaprilat Dihydrate] | 0.929 | 1.03 | 0.992 | 0.821
CC(=O)O.N=C(N)N/N=C/c1c(Cl)cccc1Cl [Guanabenz Acetate] | 0.794 | 1.13 | 0.81 | 0.943
COc1nc(C)nc(Cl)c1NC1=NCCN1 [Moxonidine] | 0.744 | 1.03 | 0.714 | 0.841

— the supplement of paper PMC9174493
